# Measured values as given in PubChem BioAssay AID504332 (National Center for Advancing Translational Sciences (NCATS), 2011).
# About 31,000 (8.9%) of roughly 350,000 compounds were called active. Inconclusive results, whose numbers are uncertain, are shown with a selection of clear calls. Calls follow the shape of the dose curve; as a rule, active = well fitted inhibition curve with a large enough effect; inconclusive = small, poorly fitted or top-dose-only effect; inactive = no such curve, though single readings can be large or run the other way. A potency beside an inconclusive call is a rough fit, not a confirmed value.
# Target: Histone-lysine N-methyltransferase EHMT2 (Homo sapiens) (UniProt Q96KQ7)
# Experiment: qHTS Assay for Inhibitors of Histone Lysine Methyltransferase G9a; also: nearly all actives have a fitted effect of over 75% in size
# Conditions: G9a H3K9 monomethylation, AlphaScreen, 2 h; activity, negative = inhibition: at 59 µM (top of the series) unless noted
# In short: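 Signal arises when biotinylated H3K9 peptide, once monomethylated, bridges streptavidin donor and antibody-captured acceptor beads. Enzyme at 20 nM was preincubated 15 min with test compounds; peptide 500 nM and SAM 20 uM then reacted for 2 h.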
# % is scaled to controls: 0 for no effect and ±100 for the full control effect; potency is read from the fitted curve at half-maximal effect; tags tell the direction and shape of the fitted curve.
# Sequence of UniProt Q96KQ7 (Q96KQ7 whole entry, looked up): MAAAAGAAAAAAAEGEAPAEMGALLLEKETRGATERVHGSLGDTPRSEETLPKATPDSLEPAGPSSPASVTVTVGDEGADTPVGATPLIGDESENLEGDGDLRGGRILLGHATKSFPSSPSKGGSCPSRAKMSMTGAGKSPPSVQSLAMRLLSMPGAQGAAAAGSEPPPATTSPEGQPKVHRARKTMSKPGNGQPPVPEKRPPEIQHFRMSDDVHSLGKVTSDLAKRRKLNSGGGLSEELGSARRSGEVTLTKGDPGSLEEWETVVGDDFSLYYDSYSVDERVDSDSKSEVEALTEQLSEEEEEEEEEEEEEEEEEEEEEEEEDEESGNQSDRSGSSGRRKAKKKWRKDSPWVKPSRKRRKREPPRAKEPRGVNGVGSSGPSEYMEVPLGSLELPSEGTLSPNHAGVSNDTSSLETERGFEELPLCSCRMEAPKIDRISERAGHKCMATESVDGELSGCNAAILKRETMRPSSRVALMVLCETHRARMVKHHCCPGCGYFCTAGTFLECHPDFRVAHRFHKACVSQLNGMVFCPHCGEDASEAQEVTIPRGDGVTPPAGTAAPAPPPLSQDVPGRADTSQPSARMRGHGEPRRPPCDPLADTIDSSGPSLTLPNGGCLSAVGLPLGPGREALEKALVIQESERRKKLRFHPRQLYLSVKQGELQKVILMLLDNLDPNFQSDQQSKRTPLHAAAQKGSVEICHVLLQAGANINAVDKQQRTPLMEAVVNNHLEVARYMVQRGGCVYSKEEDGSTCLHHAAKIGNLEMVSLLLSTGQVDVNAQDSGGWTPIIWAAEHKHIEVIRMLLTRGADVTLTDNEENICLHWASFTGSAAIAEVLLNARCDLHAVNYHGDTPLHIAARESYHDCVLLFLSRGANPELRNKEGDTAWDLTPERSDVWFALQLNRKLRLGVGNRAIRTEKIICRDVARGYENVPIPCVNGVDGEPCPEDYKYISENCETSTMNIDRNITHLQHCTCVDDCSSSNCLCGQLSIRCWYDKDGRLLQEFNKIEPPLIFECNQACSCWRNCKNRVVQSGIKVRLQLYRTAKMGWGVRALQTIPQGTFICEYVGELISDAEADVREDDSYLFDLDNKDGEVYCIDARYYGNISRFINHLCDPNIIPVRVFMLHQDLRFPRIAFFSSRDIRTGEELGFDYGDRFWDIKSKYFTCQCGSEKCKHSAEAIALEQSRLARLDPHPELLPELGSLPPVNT
Compound,Potency,"activity, negative = inhibition"
S=c1[nH]c2ccc(Cl)cc2[nH]1,active: 1.58 µM,
CCCC(=O)Nc1ccc2nn(-c3ccc(CC)cc3)nc2c1,"inconclusive: 0.891 µM [inhibitor, full curve, poor fit]",
COc1ccc(C2CC(=O)c3cc(-c4nc(-c5cccc([N+](=O)[O-])c5)cs4)c(=O)n(-c4cc(C)cc(C)c4)c3C2)cc1 (configuration not stated),,inactive: -37%
CCOC(=O)CSc1nc2sc3c(c2c(=O)n1CC)CCCC3,"inconclusive: 3.98 µM [inhibitor, single point]",
CN(C)CCn1c2c(c(SCC(=O)NCc3ccccc3)nc1=O)CCC2,,inactive: -1.82% [at 102 µM]
CCCCn1c(N)c(N(Cc2ccccc2OC)C(=O)C(C)Oc2ccc(F)cc2)c(=O)[nH]c1=O (configuration not stated),"inconclusive: 44.7 µM [inhibitor, partial curve, poor fit]",
CCN(CC)C(=O)CSc1ncccc1-c1nc2ccccc2[nH]1,active: 50.1 µM,
Cc1ccnc(N/N=C/c2ccccc2)n1,,inactive: 19.1%
COc1c(C(=O)N2CCCC2)ccc2ccccc12,"inconclusive: 79.4 µM [inhibitor, partial curve, poor fit]",
CCOc1ccc2nc(NC(=O)CSc3ccccc3)sc2c1,"inconclusive: 3.16 µM [inhibitor, single point]",
COc1cc(/C=N/NC(=O)Cn2nnc3ccccc32)ccc1O,,inactive: 22.7% [at 102 µM]
CC(=O)c1cc2cc(O)ccc2o1,"inconclusive: 10 µM [inhibitor, partial curve, poor fit]",
COc1ccccc1-c1nc2ccc(Cl)cc2c(=O)n1O,,inactive: 3.34% [at 102 µM]
O=c1oc2cc(O)ccc2c2ccccc12,active: 2 µM,
COc1cc(Nc2ccc(S(=O)(=O)N3CCN(C)CC3)cc2[N+](=O)[O-])cc(OC)c1,active: 50.1 µM,
COc1ccc(C2C=C(c3ccc(C)cc3)Nc3ncnn32)cc1 (configuration not stated),"inconclusive: 14.1 µM [inhibitor, single point]",
COc1cccc(/C=C2\SC(=S)NC2=O)c1OS(=O)(=O)c1ccc(NC(C)=O)cc1,,inactive: -48.4%
CNCC(O)Cn1c2c(c3ccccc31)CCCC2 (configuration not stated),active: 50.1 µM,
COc1cccc(C(=O)NCCS(=O)(=O)N2CC(C)CC(C)C2)c1 (configuration not stated),active: 25.1 µM,
CCCCOC(=O)C(C)Sc1n[nH]c(=O)[nH]c1=O (configuration not stated),,inactive: -33.2% [at 102 µM]
CCc1c(C)sc(NC(=S)N2CCN(S(C)(=O)=O)CC2)c1C(=O)OC,"inconclusive: 50.1 µM [inhibitor, partial curve]",
CCCCn1nc(C(=O)N[C@@H](CCSC)c2nc3ccccc3[nH]2)c2ccccc2c1=O,"inconclusive: 25.1 µM [inhibitor, partial curve, poor fit]",
